# Measured values from PubChem BioAssay AID1240 (Sanford-Burnham Center for Chemical Genomics, 2008).
# In all, about 50,000 compounds went through this assay and about 800 (1.6%) showed an effect of 50% or more. The list shows a part of the results.
# Target: Bcl-2-like protein 10 (Homo sapiens) (UniProt Q9HD36)
# Test: TR3 peptide-Bcl-B binding displacers, biochemical primary FP assay, phenotype converters (AID 1240);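 further: 0% = Bcl-B with tracer peptide and DMSO and 100% = tracer peptide lacking Bcl-B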
# Details: GST-Bcl-B / FITC-TR3 peptide fluorescence polarization; stronger effect = higher value; compound at 3.75 mg/L
# UniProt Q9HD36, sequence (Q9HD36 whole entry, looked up): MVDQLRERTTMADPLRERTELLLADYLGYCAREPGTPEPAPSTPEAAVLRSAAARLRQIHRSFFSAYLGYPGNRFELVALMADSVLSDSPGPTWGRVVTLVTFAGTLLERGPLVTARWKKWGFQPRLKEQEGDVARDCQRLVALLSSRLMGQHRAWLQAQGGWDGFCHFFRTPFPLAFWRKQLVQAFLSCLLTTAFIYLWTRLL
row,Compound,displacement [%]
1,O=C1C2CC=C(c3ccccc3)CC2C(=O)N1c1ccc(Br)cc1 (centres undefined),12.3
2,COc1ccc(N(CC(=O)Nc2ccccc2Cl)S(=O)(=O)c2ccc(C)cc2)c(OC)c1,0.1
3,COc1ccc(N(CC(=O)N2CCCC2)S(=O)(=O)c2ccc(C)cc2)cc1OC,5.9
4,CSC1=NC(c2cccc([N+](=O)[O-])c2)C(C(=O)OC(C)C)=C(C)N1 (centres undefined),-5.5
5,NS(=O)(=O)c1ccc(Nc2nnc(-c3ccccc3)c3ccccc23)cc1,-2.3
6,C=CCN1C(=O)/C(=C\c2cn(Cc3ccccc3Cl)c3ccccc23)SC1=S,33.7
7,CCN(/C=N/c1sc2c(c1C#N)CCCC2)CC,-4.6
8,Cc1cc2nc(NCCCO)n(CC(=O)c3cc(C(C)(C)C)c(O)c(C(C)(C)C)c3)c2cc1C,12.1
9,CCOC(=O)c1c(NC(=O)c2ccoc2C)sc2c1CCC(C)C2 (centres undefined),-2.3
10,CCOC(=O)c1ccc(N=Cc2nc(-c3ccccc3)oc2O)cc1,-3.3
11,CCOC(=O)C1=C(C)NC(=O)NC1c1ccc(F)c(Br)c1 (centres undefined),4.2
12,COC(=O)c1ccc2c(c1)C1C=CCC1C(c1ccc(Br)cc1)N2 (centres undefined),0.8
13,CC(=O)C1=C(O)C(=O)N(CCCC(=O)O)C1c1ccc(F)cc1 (centres undefined),7.8
14,CCOC(=O)C1=C(C)NC(=S)NC1C1CC=CCC1 (centres undefined),0.4
15,CCOC(=O)c1ccc(NC(=O)CC(=O)Nc2ccc(C(=O)OCC)cc2)cc1,12.4
16,Cc1ccc(C2C3=C(CC(C)(C)CC3=O)OC3=C2C(=O)CC(C)(C)C3)cc1[N+](=O)[O-],10.5
17,N=c1n(CCO)c2ccccc2n1Cc1ccccc1Cl,-0.8
18,COc1ccc(/C(N)=N/OC(=O)c2ccc(Cl)cc2Cl)cc1,3.3
19,O=C(Nc1cccc(-c2nc3ccccc3s2)c1)c1cc2ccccc2o1,-9.3
20,O=C1N=C(N2CCOCC2)S/C1=C/c1cccs1,10
21,O=C(COc1ccc(Cl)cc1Cl)NCc1ccccn1,1
22,CC12CN3CC(C)(CN(C1)C(=O)c1ccccc1C3=O)C2=O,2.2
23,CC1=C(C(=O)Nc2ccc(Br)cc2)C(c2ccc(C)cc2)NC(=O)N1 (centres undefined),-2.5
24,Clc1ccc(/C=N\N2CCN(C(c3ccccc3)c3ccccc3)CC2)cc1,-1.3
25,O=C(O)CSc1nnc(-c2sc3ccccc3c2Cl)n1-c1ccccc1,12.2
26,CCOc1ccc(C(=O)Nc2ccc(C(=O)OC)cc2)cc1[N+](=O)[O-],13.1
27,CCCC(=O)Nc1ccc(NC(=O)c2ccc(-c3ccc(Cl)cc3)o2)cc1,3
28,O=C(CSc1nc2ccccc2[nH]1)N/N=C/c1ccc(Cl)cc1Cl,-3.8
29,CC(=O)NC1=NC(=O)/C(=C\c2ccc(-c3ccc([N+](=O)[O-])cc3C)o2)S1,-8.5
